From PubChem BioAssay (NCATS)
Values joined by “and” are separate entries in the source; they are usually repeats but may differ in a detail not shown here. Equal values may be shown once. The inconclusive results got no clear call from the source; some entries with a clear call stand among them for comparison. A potency beside an inconclusive call is a rough fit, not a confirmed value. Active and inactive are the calls of the source. Calls come from the whole dose curve; as a rule, active = well fitted curve in the direction sought with a large enough effect; inconclusive = small, poorly fitted or top-dose-only effect, or another doubt; inactive = no such curve, though single readings can be large; an effect the other way counts as inactive or inconclusive.

Legend:
[1] = qHTS of pediatric cancer cell lines to identify multiple opportunities for drug repurposing: Primary screen for SK-N-MC cells (AID 1347093); conditions: SK-N-MC viability, CellTiter-Glo luminescence, 48 h; activity change, negative = cytotoxic: at 46 µM (top of the series) unless noted
In short: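 Metabolically active cells were quantified by ATP-dependent luminescence (CellTiter-Glo, 15 min at room temperature) following 48 h treatment. Cells had been plated at 500-1,000 per well and settled for 5 h beforehand.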

[2] = qHTS of pediatric cancer cell lines to identify multiple opportunities for drug repurposing: Primary screen for BT-37 cells (AID 1347094)
In short: (§1)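 Cells seeded at 500-1,000 cells/well in growth media, rested 5 hours at 37 degrees C, 5% CO2, then dosed; MIPE compounds at 11-point (from 0.78 nM) and NPC at 8-point (from 0.59 nM) final concentrations. Viability by CellTiter-Glo luminescence after 48 hours.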

[3] = qHTS of pediatric cancer cell lines to identify multiple opportunities for drug repurposing: Primary screen for NB-EBc1 cells (AID 1347095)
In short: as §1

[4] = qHTS of pediatric cancer cell lines to identify multiple opportunities for drug repurposing: Primary screen for U-2 OS cells (AID 1347096); note: nearly all actives have a fitted effect of over 50% in size
In short: (§2)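 Viability after 48 h compound treatment at 37C, 500-1,000 cells/well, read as ATP luminescence with CellTiter-Glo. Primary screens used 11-point (MIPE, 0.78 nM-46 µM) or 8-point (NPC, 0.59 nM-46 µM) final concentrations; follow-up screens used 11-point dilutions.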

[5] = qHTS of pediatric cancer cell lines to identify multiple opportunities for drug repurposing: Primary screen for SK-N-SH cells (AID 1347098); conditions: SK-N-SH viability, CellTiter-Glo luminescence, 48 h; activity change, negative = cytotoxic: at 57 µM (top of the series) unless noted; note: nearly all actives have a fitted effect of over 65% in size
In short: (§3)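 Cells (500-1,000/well) rested 5 h, then received compounds for 48 h; metabolically active cells were measured by CellTiter-Glo luminescence. Final concentrations spanned up to 46 µM (MIPE, 11-point) or 0.59 nM-46 µM (NPC, 8-point) in primary screens, 11-point in follow-ups.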

[6] = qHTS of pediatric cancer cell lines to identify multiple opportunities for drug repurposing: Primary screen for NB1643 cells (AID 1347099); note: nearly all actives have a fitted effect of over 50% in size
In short: as §1

[7] = qHTS of pediatric cancer cell lines to identify multiple opportunities for drug repurposing: Primary screen for LAN-5 cells (AID 1347100); conditions: LAN-5 neuroblastoma viability, CellTiter-Glo luminescence, 48 h; activity change, negative = cytotoxic: at 46 µM (top of the series) unless noted
In short: as §2

[8] = qHTS of pediatric cancer cell lines to identify multiple opportunities for drug repurposing: Primary screen for BT-12 cells (AID 1347101); note: nearly all actives have a fitted effect of over 25% in size
In short: as §3

[9] = qHTS of pediatric cancer cell lines to identify multiple opportunities for drug repurposing: Primary screen for Saos-2 cells (AID 1347097); conditions: Saos-2 viability, CellTiter-Glo ATP luminescence, 48 h; activity change, negative = cytotoxic: at 46 µM (top of the series) unless noted; note: nearly all actives have a fitted effect of over 40% in size
In short: as §1

[10] = qHTS of pediatric cancer cell lines to identify multiple opportunities for drug repurposing: Primary screen for Rh18 cells (AID 1347102); note: nearly all actives have a fitted effect of over 65% in size
In short: as §2
Potency is the fitted concentration of half-maximal effect; tags give direction and shape of the fitted curve.

Oc1cc(Cl)ccc1Oc1ccc(Cl)cc1Cl
Potency [1]: inconclusive: 33.5 µM [cytotoxic, single point]
Potency [2]: inconclusive: 38.9 µM [cytotoxic, single point]
Potency [3]: active: 4.95 µM and inconclusive: 21.1 µM [cytotoxic, single point]
Potency [4]: inconclusive: 49.5 µM [cytotoxic, single point]
Potency [5]: active: 11.4 µM and active: 27.3 µM
Potency [6]: inconclusive: 23.7 µM [cytotoxic, single point]
Potency [7]: inconclusive: 7 µM [cytotoxic, full curve, poor fit] and inconclusive: 29.9 µM [cytotoxic, single point]
Potency [8]: active: 20.5 µM and inconclusive: 38.9 µM [cytotoxic, single point]

CC(C)(C)CC(C)(C)c1ccc(O)cc1
Potency [1]: inconclusive: 33.5 µM [cytotoxic, single point]
Potency [2]: inconclusive: 28.2 µM [cytotoxic, single point] and inconclusive: 34.7 µM [cytotoxic, single point]
Potency [3]: inconclusive: 21.1 µM [cytotoxic, single point]
Potency [4]: inconclusive: 48.6 µM [cytotoxic, single point] and inconclusive: 21.1 µM [cytotoxic, single point]
Potency [9]: active: 30.6 µM and active: 21.1 µM
Potency [5]: inconclusive: 17.2 µM [cytotoxic, partial curve, poor fit]
Potency [6]: inconclusive: 48.6 µM [cytotoxic, single point]
Potency [7]: inconclusive: 21.7 µM [cytotoxic, partial curve, poor fit] and inconclusive: 29.9 µM [cytotoxic, single point]

O=C(O)c1cc(Oc2ccc(C(F)(F)F)cc2Cl)ccc1[N+](=O)[O-]
Potency [1]: inactive
Potency [2]: inactive

Cc1nnc2n1-c1sc(CCc3ccc(CC(C)C)cc3)cc1C(c1ccccc1Cl)=NC2C (centres undefined)
Potency [1]: inconclusive: 23.7 µM [cytotoxic, single point]
Potency [2]: inconclusive: 30.9 µM [cytotoxic, single point]
Potency [3]: inconclusive: 23.7 µM [cytotoxic, single point]
Potency [4]: inconclusive: 33.5 µM [cytotoxic, single point]
Potency [9]: inconclusive: 33.5 µM [cytotoxic, single point]
Potency [5]: inconclusive: 38.6 µM [cytotoxic, single point]
Potency [6]: inconclusive: 21.1 µM [cytotoxic, single point]
Potency [8]: active: 11 µM
Potency [10]: inconclusive: 29.9 µM [cytotoxic, single point]

C[C@](O)(COc1ccc(C#N)cc1)C(=O)Nc1ccc(C#N)c(C(F)(F)F)c1
Potency [1]: inconclusive: 29.6 µM [cytotoxic, single point]
Potency [2]: inconclusive: 27.3 µM [cytotoxic, partial curve, poor fit]
Potency [3]: inconclusive: 26.4 µM [cytotoxic, single point]
Potency [4]: inactive
Potency [9]: inconclusive: 37.2 µM [cytotoxic, single point]
Potency [5]: inconclusive: 30.4 µM [cytotoxic, single point]
Potency [6]: active: 23.5 µM
Potency [7]: inconclusive: 37.2 µM [cytotoxic, single point]
Potency [8]: inconclusive: 43.2 µM [cytotoxic, single point]

Clc1ccc(CSC(Cn2ccnc2)c2ccc(Cl)cc2Cl)cc1 (centres undefined)
Potency [1]: active: 33.5 µM
Potency [2]: inconclusive: 30.9 µM [cytotoxic, single point]
Potency [3]: inconclusive: 21.1 µM [cytotoxic, single point]
Potency [4]: inconclusive: 26.6 µM [cytotoxic, single point]
Potency [9]: inconclusive: 15 µM [cytotoxic, single point]
Potency [5]: active: 34.4 µM
Potency [6]: inconclusive: 26.6 µM [cytotoxic, single point]
Potency [7]: inconclusive: 33.5 µM [cytotoxic, single point]
Potency [10]: inconclusive: 23.7 µM [cytotoxic, single point]

COc1ccc2c(c1OC)CN1CCc3cc4c(cc3C1C2)OCO4 (centres undefined)
Potency [1]: inconclusive: 33.5 µM [cytotoxic, single point] and inconclusive: 37.2 µM [cytotoxic, single point]
Potency [2]: inconclusive: 34.7 µM [cytotoxic, single point]
Potency [3]: inconclusive: 20.9 µM [cytotoxic, partial curve]
Potency [9]: inconclusive: 9.35 µM [cytotoxic, full curve]
Potency [7]: inconclusive: 15 µM [cytotoxic, partial curve, poor fit] and inconclusive: 5.26 µM [cytotoxic, full curve]
Potency [8]: inconclusive: 19.3 µM [cytotoxic, partial curve]
Potency [10]: inconclusive: 3.76 µM [cytotoxic, partial curve, poor fit]

CC=C(C)C(=O)N[C@@H](c1ccccc1)[C@@H](O)C(=O)O[C@H]1C[C@@]2(O)[C@@H](OC(=O)c3ccccc3)[C@@H]3[C@]4(OC(C)=O)CO[C@@H]4C[C@H](O)[C@@]3(C)C(=O)[C@H](OC(C)=O)C(=C1C)C2(C)C
Potency [1]: active: 0.001 µM
Potency [2]: inconclusive: 0.0019 µM [cytotoxic, full curve]
Potency [3]: inconclusive: 0.003 µM [cytotoxic, full curve]
Potency [5]: inconclusive: 0.0108 µM [cytotoxic, full curve, poor fit]
Potency [6]: inconclusive: 0.059 µM [cytotoxic, full curve]

CN(C)CCc1c[nH]c2cccc(OP(=O)(O)O)c12
Potency [1]: inactive

Clc1ccc(CCC(Cn2ccnc2)Sc2c(Cl)cccc2Cl)cc1 (centres undefined)
Potency [1]: inconclusive: 11.9 µM [cytotoxic, partial curve, poor fit] and active: 23.5 µM
Potency [2]: inconclusive: 38.9 µM [cytotoxic, single point] and inconclusive: 34.3 µM [cytotoxic, single point]
Potency [3]: inconclusive: 33.2 µM [cytotoxic, single point]
Potency [4]: inconclusive: 21.1 µM [cytotoxic, partial curve, poor fit] and inconclusive: 29.6 µM [cytotoxic, single point]
Potency [9]: inconclusive: 33.5 µM [cytotoxic, single point] and inconclusive: 20.9 µM [cytotoxic, single point]
Potency [6]: inconclusive: 33.5 µM [cytotoxic, single point] and inconclusive: 29.6 µM [cytotoxic, single point]
Potency [7]: inconclusive: 29.9 µM [cytotoxic, single point] and active: 20.9 µM
Potency [8]: inconclusive: 30.9 µM [cytotoxic, single point] and inconclusive: 24.3 µM [cytotoxic, partial curve]

C[C@]12CC[C@H]3[C@@H](CCC4=CC(=O)CC[C@@]43C)[C@@H]1CC[C@@H]2C(=O)O
Potency [1]: inactive
Potency [2]: inactive

O=c1[nH]c2ccccc2n1C1CCN(CCCC(c2ccc(F)cc2)c2ccc(F)cc2)CC1
Potency [1]: active: 16.8 µM
Potency [2]: inconclusive: 34.7 µM [cytotoxic, single point]
Potency [3]: inconclusive: 29.9 µM [cytotoxic, single point]
Potency [9]: inconclusive: 29.9 µM [cytotoxic, single point]
Potency [5]: active: 27.3 µM
Potency [6]: inconclusive: 29.9 µM [cytotoxic, single point]
Potency [7]: inconclusive: 23.7 µM [cytotoxic, single point]
Potency [10]: inconclusive: 21.1 µM [cytotoxic, single point]

C[C@]12Cc3nonc3C[C@@H]1CC[C@@H]1[C@@H]2CC[C@@]2(C)[C@H]1CC[C@]2(C)O
Potency [1]: inconclusive: 33.5 µM [cytotoxic, single point]
Potency [2]: inconclusive: 38.9 µM [cytotoxic, single point]
Potency [3]: inconclusive: 13.3 µM [cytotoxic, single point]
Potency [9]: inconclusive: 26.6 µM [cytotoxic, single point]
Potency [7]: inconclusive: 16.8 µM [cytotoxic, single point]
Potency [8]: inconclusive: 21.9 µM [cytotoxic, partial curve]

Nc1ccc(N=Nc2ccccc2)cc1
Potency [1]: inconclusive: 48.6 µM [cytotoxic, single point]
Potency [2]: inconclusive: 28.2 µM [cytotoxic, partial curve, poor fit]
Potency [3]: inconclusive: 30.6 µM [cytotoxic, single point]
Potency [4]: inconclusive: 30.6 µM [cytotoxic, partial curve, poor fit]
Potency [5]: inconclusive: 9.94 µM [cytotoxic, full curve]
Potency [6]: inconclusive: 30.6 µM [cytotoxic, partial curve, poor fit]
Potency [7]: active: 38.6 µM
Potency [8]: inconclusive: 31.7 µM [cytotoxic, partial curve, poor fit]
Potency [10]: inconclusive: 30.6 µM [cytotoxic, single point]

O=C(Nc1ccc(Br)cc1)c1cc(Br)cc(Br)c1O
Potency [1]: inconclusive: 29.9 µM [cytotoxic, single point]
Potency [2]: inconclusive: 30.9 µM [cytotoxic, single point]
Potency [3]: inconclusive: 29.9 µM [cytotoxic, single point]
Potency [4]: inconclusive: 16.8 µM [cytotoxic, partial curve, poor fit]
Potency [9]: inconclusive: 21.1 µM [cytotoxic, single point]
Potency [6]: active: 9.44 µM
Potency [7]: inconclusive: 29.9 µM [cytotoxic, single point]
Potency [8]: active: 27.6 µM
